Paper PMC4336329 (PLoS ONE, 2015)
The whole screen tested about 310,000 compounds, of which about 14,000 (4.5%) showed an effect of 50% or more. The effect is printed as a negative number. This is one part of the list.

Biological target: human ether-à-go-go-related gene (hERG) potassium channel (human, UniProt Q12809)
Assay: primary screen, population patch clamp on CHO cells stably expressing hERG
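Also: peak tail current of the secondary pulse compared with the same well before compound.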

Sequence of human ether-à-go-go-related gene (hERG) potassium channel (Q12809 whole entry, looked up): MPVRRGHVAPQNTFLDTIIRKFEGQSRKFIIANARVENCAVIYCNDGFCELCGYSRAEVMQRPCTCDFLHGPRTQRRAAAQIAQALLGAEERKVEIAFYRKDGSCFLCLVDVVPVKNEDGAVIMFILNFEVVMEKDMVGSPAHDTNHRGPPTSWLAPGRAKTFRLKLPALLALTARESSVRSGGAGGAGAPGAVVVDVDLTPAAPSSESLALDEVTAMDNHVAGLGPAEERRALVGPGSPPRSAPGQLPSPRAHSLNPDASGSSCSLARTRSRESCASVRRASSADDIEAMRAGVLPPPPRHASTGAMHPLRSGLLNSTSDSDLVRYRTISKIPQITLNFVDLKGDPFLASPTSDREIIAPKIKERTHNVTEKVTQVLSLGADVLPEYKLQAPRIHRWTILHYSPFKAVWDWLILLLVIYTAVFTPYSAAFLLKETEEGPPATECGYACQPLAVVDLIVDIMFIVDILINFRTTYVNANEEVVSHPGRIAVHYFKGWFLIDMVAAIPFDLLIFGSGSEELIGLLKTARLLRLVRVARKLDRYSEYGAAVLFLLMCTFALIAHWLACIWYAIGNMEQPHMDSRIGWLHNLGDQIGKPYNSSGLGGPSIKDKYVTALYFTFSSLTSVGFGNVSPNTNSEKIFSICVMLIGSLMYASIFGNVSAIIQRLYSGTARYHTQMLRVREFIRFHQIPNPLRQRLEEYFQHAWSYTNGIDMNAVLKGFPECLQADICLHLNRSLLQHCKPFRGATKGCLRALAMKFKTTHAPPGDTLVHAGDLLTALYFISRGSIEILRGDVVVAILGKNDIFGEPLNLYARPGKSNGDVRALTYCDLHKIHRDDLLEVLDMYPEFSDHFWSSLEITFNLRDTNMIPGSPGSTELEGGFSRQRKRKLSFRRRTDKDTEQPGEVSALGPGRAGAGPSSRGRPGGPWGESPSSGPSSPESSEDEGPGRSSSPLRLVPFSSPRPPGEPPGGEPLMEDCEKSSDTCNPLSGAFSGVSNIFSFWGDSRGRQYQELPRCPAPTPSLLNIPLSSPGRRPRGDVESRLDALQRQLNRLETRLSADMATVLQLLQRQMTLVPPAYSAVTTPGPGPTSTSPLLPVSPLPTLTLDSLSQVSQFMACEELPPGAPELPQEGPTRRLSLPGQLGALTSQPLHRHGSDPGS

| SMILES | hERG current change (%, negative = inhibition) at 10uM [%] |
| --- | --- |
| COC(=O)C(O)(c1ccc(NC(=O)c2cccs2)cc1)C(F)(F)F (centres unmarked) | 4.08 |
| O=C(NCCn1c(C(F)(F)F)nc2cc(C(F)(F)F)ccc21)[C@H]1CCCN1c1nc(CN2CCCCC2)cs1 | -17.1 |
| CCOC(=O)C1(CC2CC2)CCN(C(=O)c2cc(OC)nc3ccccc23)CC1 | -12.9 |
| O=C(O)c1cc(-c2ccc(O)cc2)on1 | 19.1 |
| COc1ccc(NC(=S)N2CCC(c3nc4ccc(Cl)cc4[nH]3)CC2)c(OC)c1 | -42.6 |
| CCOC(=O)c1sc(-c2cccc(C(F)(F)F)c2)nc1O | 10.7 |
| CCOc1ccc(CCNC(=O)C2=C(C)C(=O)OC23CCC(C)CC3)cc1 (centres unmarked) | -11.6 |
| CCOc1ccc(CCNC(=O)COC(=O)c2ccc(OC(C)C)cc2)cc1OCC | -6.24 |
| C=CCc1c(OC)ccc2c1c(S(=O)(=O)c1ccc(C)cc1)cn2COC | -2.73 |
| C/C=C(\C)C(=O)OC1c2c(ccc3ccc(=O)oc23)OC(C)(C)C1OC(C)=O (centres unmarked) | -72.5 |
| C=C(C)C(=O)N1CC2(CC(c3cccc(NC(=O)/C(C)=C\C)c3)=NO2)C[C@H]1C(N)=O (some centres unmarked) | 2.26 |
| CCOc1ccc(C(O)C(CN2CCOCC2)c2ccccc2)cc1.Cl (centres unmarked) | 2.89 |
| CC(C)(C)c1ccc(C(=O)N2CCC(=O)N(C(CO)Cc3ccccc3)CC2)cc1 (centres unmarked) | -16.7 |
| CC(CC(=O)Nc1ccc(S(=O)(=O)N2CCOCC2)cc1)c1ccccc1 (centres unmarked) | -4.25 |
| O=C(CN1CCOCC1)Nc1ccc(S(=O)(=O)NC2CCCCC2)cc1 | -2.5 |
| COCCCn1[nH]c2c3c(ccc2c1=O)C(=O)c1ccccc1C3=O | -3.05 |
| Cc1oc(-c2ccccc2F)nc1CS(=O)CC(=O)NCCN1CCCCC1C (centres unmarked) | -6.01 |
| COc1c2c(cc3oc(C)cc(=O)c13)OC(C(C)(C)OC1OC(CO)C(O)C(O)C1O)C2 (centres unmarked) | 15.8 |
| O=C(COC(=O)COc1ccc(Cl)cc1Cl)NC1CCCCCC1 | 15.7 |

| SMILES | hERG current change (%, negative = inhibition) at 10uM [%] |
| --- | --- |
| COc1ccccc1N1CCN(C(=O)C(NS(=O)(=O)c2cccs2)c2ccccc2)CC1 (centres unmarked) | -34.4 |
| COc1cc(C)c(-c2[nH]ncc2-c2csc(C)n2)c(O)c1 | 1.23 |
| COc1ccc(C)cc1NC(=O)NCc1ccco1 | 16.2 |
| C=C(C)Cn1c(-c2cccc([N+](=O)[O-])c2)n[nH]c1=S | -0.235 |
| COc1ccc(N(CC(=O)Nc2ccccc2OC)S(=O)(=O)c2ccc(NC(C)=O)cc2)cc1 | -3.12 |
| CCCN1C(=O)c2ccc(C(=O)NC3CCCCC3)cc2C1=O | 18.4 |
| CCN(CC)C(=S)Sc1c(-c2ccccc2)c2cc(Cl)ccc2[nH]c1=O | 5.42 |
| COc1ccc(OC)c(NC(=O)CCN2CCCCCC2)c1.Cl | -0.265 |
| NC(=O)NC(=O)C(OC(=O)CCNS(=O)(=O)c1ccccc1)c1ccccc1 (centres unmarked) | -15.2 |
| COc1ccc(-n2nnnc2SCC(=O)NCc2ccco2)cc1OC | -7.64 |
| CCN(CC)S(=O)(=O)c1ccc(OC)c(NC(=O)c2ccc(OC)c([N+](=O)[O-])c2)c1 | -24.4 |
| O=C(CCNS(=O)(=O)c1ccccc1)N1CCCC1 | 20.5 |
| O=C(O)Cn1cc(C(=O)C(F)(F)F)c2ccccc21 | 23.2 |
| O=C1NN(c2cccc(Br)c2)C(=O)/C1=C\c1ccc(O)cc1 | 12 |
| CCOc1ccc(NC(=O)c2ccco2)cc1 | 1.89 |
| COc1ccccc1OCCC(=O)Nc1nc(C)cs1 | -4.6 |
| COc1ccc2c(c1)CCCN2S(=O)(=O)c1ccc(Cl)cc1 | 9.65 |
| O=C1CN(C(=O)OCc2ccccc2)c2ccccc2N1 | 6.68 |
| COC(=O)C(C)C1Sc2ccccc2NC1=O (centres unmarked) | 15.7 |

| SMILES | hERG current change (%, negative = inhibition) at 10uM [%] |
| --- | --- |
| O=C1C(Cl)=C(N2CCCCC2)C(=O)N1c1ccccc1Cl | 2.75 |
| O=C(COC(=O)c1ccccc1Nc1ccc(SC(F)F)cc1)NCc1ccco1 | 9.78 |
| NC(=O)c1ccccc1OCC(=O)Nc1ccc2c(c1)CCC2 | 5.27 |
| CCOc1c(Cl)cc(/C=C/C(=O)N(CC)CC(=O)Nc2ccc(NC(C)=O)cc2)cc1OC | -9.39 |
| Cc1ccc(C(C)C)c(OCC(=O)NNC(=O)Nc2ccccc2)c1 | -2.28 |
| CCOc1ccc(NC(=O)CN(C)C(=O)C2=COCCO2)cc1OCC | -11.1 |
| CCC(=NCCc1ccc(OC)c(OC)c1)C1=C(O)CC(C)(C)CC1=O | 17.6 |
| O=C(COC(=O)C1CCCCC1)Nc1ccccc1OC(F)F | 44.1 |
| O=C(Nc1ccc2sccc2c1)c1cccc(N2C(=O)CCC2=O)c1 | -4.81 |
| Cc1ccc(C(=O)Nc2nc(=O)n(C(=O)CC(C)C)s2)cc1 | 43 |
| COc1ccc(S(=O)(=O)CCC(=O)N2CC(=O)N(CCc3ccccc3)C(=O)C2)cc1 | -9.84 |
| COCCNC(=O)CCCCCNS(=O)(=O)c1ccc(C)cc1 | 8.18 |
| Cc1cc(C)cc(OCC(=O)Nc2ccc(N3CCN(S(C)(=O)=O)CC3)cc2)c1 | 3.74 |
| CCCc1nnc(NC(=O)C(CC)OC(=O)c2cc(C)nc3ccccc23)s1 (centres unmarked) | -28 |
| COC(=O)c1cccc(OC(N)=O)c1 | -0.699 |
| COc1cc(/C=C/C(=O)O)cc(S(=O)(=O)N(C)CCO)c1OC | -2.7 |
| COc1ccc(N(C)S(=O)(=O)c2ccc3c(c2)CCC(=O)N3)cc1 | -9.5 |
| CCOC(=O)C(NC(=O)c1ccccc1Cl)(Nc1ccc(C)c(C)c1)C(F)(F)F (centres unmarked) | 1.26 |
